About 2,200 (0.71%) of roughly 310,000 compounds showed an effect of 50% or more. Effects have a minus sign here. The list shows a part of the results.
Molecular target: human ether-à-go-go-related gene (hERG) potassium channel (human, UniProt Q12809)
Experiment: primary screen, population patch clamp on CHO cells stably expressing hERG

Sequence of human ether-à-go-go-related gene (hERG) potassium channel (Q12809 whole entry, looked up): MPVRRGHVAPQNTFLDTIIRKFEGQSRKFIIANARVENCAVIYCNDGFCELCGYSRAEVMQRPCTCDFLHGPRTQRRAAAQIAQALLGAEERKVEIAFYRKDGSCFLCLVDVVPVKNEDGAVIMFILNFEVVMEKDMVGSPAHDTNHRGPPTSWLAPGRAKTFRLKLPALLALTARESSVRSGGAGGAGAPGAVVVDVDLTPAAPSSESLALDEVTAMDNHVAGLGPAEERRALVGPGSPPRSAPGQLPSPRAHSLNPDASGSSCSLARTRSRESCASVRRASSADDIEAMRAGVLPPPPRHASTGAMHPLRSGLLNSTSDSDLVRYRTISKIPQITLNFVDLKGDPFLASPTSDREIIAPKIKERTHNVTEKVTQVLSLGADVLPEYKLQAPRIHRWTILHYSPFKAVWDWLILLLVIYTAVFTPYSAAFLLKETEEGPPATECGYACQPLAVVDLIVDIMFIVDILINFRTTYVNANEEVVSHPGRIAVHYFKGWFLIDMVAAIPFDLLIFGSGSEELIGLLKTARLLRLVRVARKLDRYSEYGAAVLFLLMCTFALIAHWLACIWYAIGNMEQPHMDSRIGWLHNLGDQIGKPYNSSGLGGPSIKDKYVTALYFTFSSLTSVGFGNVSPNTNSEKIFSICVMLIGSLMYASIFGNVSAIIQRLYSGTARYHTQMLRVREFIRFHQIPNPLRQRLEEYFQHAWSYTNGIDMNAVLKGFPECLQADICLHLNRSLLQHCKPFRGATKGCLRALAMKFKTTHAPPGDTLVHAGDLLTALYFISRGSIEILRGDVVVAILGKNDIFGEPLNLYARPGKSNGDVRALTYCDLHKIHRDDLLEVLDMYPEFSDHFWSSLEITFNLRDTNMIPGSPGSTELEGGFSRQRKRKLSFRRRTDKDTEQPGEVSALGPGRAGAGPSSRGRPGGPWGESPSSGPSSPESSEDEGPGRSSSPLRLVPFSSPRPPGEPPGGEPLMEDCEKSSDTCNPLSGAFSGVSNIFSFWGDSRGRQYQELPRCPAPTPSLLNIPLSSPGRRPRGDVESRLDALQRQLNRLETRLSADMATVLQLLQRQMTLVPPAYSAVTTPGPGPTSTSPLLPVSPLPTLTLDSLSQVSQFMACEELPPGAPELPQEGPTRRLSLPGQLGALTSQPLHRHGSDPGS

| Structure (SMILES) | hERG current change (%, negative = inhibition) at 1uM [%] |
| --- | --- |
| CCc1cccc(C)c1NS(=O)(=O)c1c(C)nc2sccn2c1=O | 0.344 |
| O=C1CC(c2ccccc2F)c2cc3c(cc2N1)CCC3 (stereo not drawn) | 16.8 |
| Cc1ccc(-c2ccc(=O)n(CC(=O)N3CCC4(CC3)OCCO4)n2)cc1 | 12.5 |
| Cc1ccc(OCC(=O)N(C)CC(=O)Nc2ccc(F)cc2)c([N+](=O)[O-])n1 | 0.489 |
| CC(O)[C@H](NC(=O)C1CCN(C(=O)[C@H](Cc2ccccc2)NC(=O)OC(C)(C)C)CC1)C(=O)O (stereo partly drawn) | 14.1 |
| Cc1cc(SCC(=O)Nc2ccccc2)n2ncc(-c3ccccc3)c2n1 | 6.56 |
| CCN1CCN(C(=O)c2ccccc2Nc2ccc(SC(F)F)cc2)CC1.Cl | -12.2 |
| COc1cccc(NC(=O)C2C(c3ccccc3)C2(Cl)Cl)c1 (stereo not drawn) | 7.35 |
| CC(=O)N=c1c(C#N)cc2c(=O)n3ccccc3nc2n1CCCOC(C)C | 8.03 |
| O=C1CN(C(=O)COc2cccc(F)c2)c2ccccc2N1 | -0.68 |
| Cc1ccc(S(=O)(=O)N(CC(=O)Nc2cccc(N(C)S(C)(=O)=O)c2)c2ccc(Cl)c(Cl)c2)cc1 | 12.6 |
| Cc1cccc(N2CCN(Cc3ccc4c(c3)OCO4)CC2)c1C | 9.52 |
| C=CCN(CCNP(=O)(OCC)OCC)CP(=O)(OCC)OCC | 9.69 |
| COc1ccc(CC(=O)N2CC3(C)CC2CC(C)(C)C3)cc1 (stereo not drawn) | 10.9 |
| CCCOc1ccc(C(=O)c2nc3c(n2O)CCCCC3)cc1 | 0.922 |
| CC(=O)C1=C(O)C(=O)N(c2ccc(O)cc2)C1c1ccccc1F (stereo not drawn) | 16.4 |
| Cc1ccccc1-c1nc(CS(=O)CC(=O)NCCN2CCN(Cc3ccccc3)CC2)c(C)o1 (stereo not drawn) | -13.4 |
| Cc1ccccc1N1CCN(C(=S)c2ccccc2)CC1 | 7.3 |
| O=C(CN1CCCC1)N/N=C/c1c(O)ccc2ccccc12 | 5.2 |
| O=S(=O)(O)c1cc2oc(-c3ccccc3)nc2c2ccccc12 | 19.7 |
| COc1ccc(CN2CCN(CCCc3ccccc3)C(CCO)C2)cc1OC (stereo not drawn) | -44.7 |

| Structure (SMILES) | hERG current change (%, negative = inhibition) at 1uM [%] |
| --- | --- |
| CC1(C)CC(=O)C(C=Nc2ccc3c(c2)OCO3)=C(O)C1 | 5.35 |
| CCn1cc(C(=O)Nc2ncccc2O)c(=O)c2cc(F)c(N3CCN(C(=O)c4ccco4)CC3)cc21 | 14.6 |
| CC(=O)N1c2ccc(S(=O)(=O)NCCC(=O)N(C)C3CCCCC3)cc2CC1C (stereo not drawn) | 11.4 |
| Cc1ccccc1NC(=O)CC1SC(=NC2CCCCC2)NC1=O (stereo not drawn) | 18.3 |
| CCOC(=O)NC(Nc1cc(C)on1)(C(F)(F)F)C(F)(F)F | 6.59 |
| Cc1ccc(CN2CCN(CC(=O)NC(C)c3ccc4c(c3)OCCO4)C2=O)cc1 (stereo not drawn) | 13 |
| N=c1c(C(=O)NCc2ccco2)cc2c(=O)n3ccccc3nc2n1C1CCCC1 | -82.2 |
| Cc1cccc(N2CC(O)(c3cccs3)[N+]3=C2CCCC3)c1.[Br-] (stereo not drawn) | 1.4 |
| CCOC(=O)C1CCCN(C(=O)c2cc(Nc3ccc(OC)c(OC)c3)nc3ccccc23)C1 (stereo not drawn) | 9.3 |
| Cc1cccc(N2CCN(C(=O)c3ccc4c(c3)c(C)c(C)n4C)CC2C)c1 (stereo not drawn) | 2.66 |
| CN1CCN(c2ccc(C(N)=O)cc2[N+](=O)[O-])CC1 | 12.9 |
| COCCN1Cc2cccc(C(=O)NCCCN3CCCC3=O)c2C1=O | 7.69 |
| O=C(NCc1ccc(Cl)cc1)c1ccc(NC(=O)C2CCCO2)cc1 (stereo not drawn) | 9.39 |
| Cc1ccc(N2C(SCC(=O)O)=NC(=Nc3cccc(C)c3)C23CCCC3)cc1.I | 5.61 |
| CC(C)NS(=O)(=O)c1ccc(OCC(=O)N2CCN(C)CC2)cc1 | 13.2 |
| CN(CC(=O)Nc1ccc(Cl)c(C(F)(F)F)c1)Cc1cc(=O)n2ccsc2n1 | -37.7 |
| CNC(=S)Nc1ccc([N+](=O)[O-])cc1 | 11.8 |
| O=C(Nc1ccccc1[N+](=O)[O-])C1COc2ccccc2O1 (stereo not drawn) | 10.7 |
| Cc1ccc(C(=O)Nc2ccc3c(c2)nc(CCNC(=O)c2ccco2)n3C)cc1 | 9.07 |
| O=C(O)CC1COc2ccccc2N1C(=O)c1ccccc1Cl (stereo not drawn) | 18.5 |
| O=C(Nc1ccc2c(c1)OCCO2)C1c2ccccc2C(=O)N2CCc3ccccc3C12 (stereo not drawn) | 7 |

| Structure (SMILES) | hERG current change (%, negative = inhibition) at 1uM [%] |
| --- | --- |
| CCOC(=O)Cn1cc(C(=O)c2ccccc2)c2ccccc21 | 17.1 |
| COc1cc(OC)cc(-c2c(C#Cc3ccsc3)c3cc(-c4ccc5c(c4)OCCO5)ccc3n2C)c1 | 14.8 |
| COC(=O)C1=C(C)N(CCc2ccccc2)C(=O)/C1=C\c1ccco1 | 0.773 |
| CC(=O)c1sc(NCCOc2ccc(C)cc2)nc1C | 10.9 |
| COc1ccc(NC(=O)C(c2ccc(C)cc2)N(C)C(=O)c2ccc(=O)[nH]c2)cc1 (stereo not drawn) | 7.18 |
| COc1ccc(N2CCN(C(=O)c3ccccc3F)CC2)c([N+](=O)[O-])c1 | -3.31 |
| CN1/C(=C\C(=O)CSc2ncn[nH]2)C(C)(C)c2ccccc21 | 1.41 |
| COC(=O)Cc1c(C)c2ccc(O)c(CNCc3ccc(OC)c(OC)c3)c2oc1=O.Cl | 7.91 |
| CCn1c(Cc2ccc(OC)cc2)nnc1SCC(=O)Nc1nc2ccccc2s1 | 10.4 |
| Cc1ccc(S(=O)(=O)N2CCC(C(=O)N[C@@H](C)C(=O)NCC3CCCO3)CC2)cc1 (stereo partly drawn) | 3.15 |
| COc1ccc(/C=C/C(O)=C2/C(=O)NC3(C)CC2c2ccccc2O3)c(OC)c1OC (stereo not drawn) | 11 |
| C=CCN1C(=O)/C(=C/c2cc(C)n(-c3ccccn3)c2C)C(=O)NC1=S | -2.61 |
| O=C(c1cc(S(=O)(=O)N2CCCCC2)ccc1Cl)N1CCOCC1 | 9.56 |
| Cc1ccc2oc(=O)n(CCOc3ccccc3)c2c1 | 9.91 |
| COc1ccc(NC2=C(Cl)C(=O)N(CCc3ccccc3)C2=O)c(OC)c1 | 12.7 |
| COc1ccc(-c2cc(-c3nnc(COC(=O)CC4CCCC4)o3)c3ccccc3n2)cc1OC | 16.6 |
| C=CCN(C(=O)CNC(=O)c1ccco1)C(C(=O)NC1CCCCC1)c1ccccc1 (stereo not drawn) | 10.2 |
| C/C(=N\NC(=O)c1nnn(-c2nonc2N)c1-c1ccc(Cl)c(Cl)c1)c1ccncc1 | 13 |
| COc1cc2ncnc(NCc3ccc4c(c3)OCO4)c2cc1OC | 4.43 |
| CC1C(=O)N2CCCc3cc(S(=O)(=O)N4CCN(c5ccc(F)cc5)CC4)cc1c32 (stereo not drawn) | 9.22 |
| COc1cccc2cc(C(=O)N3CCN(C/C=C/c4ccccc4)CC3)c(=O)oc12 | 4.24 |

| Structure (SMILES) | hERG current change (%, negative = inhibition) at 1uM [%] |
| --- | --- |
| N#C/C(=C\c1ccc(N2CCCCC2)o1)C(=O)Nc1cccc(Br)c1 | 8.7 |
| CC(=O)CCc1ccc(OCC(O)CNC2CCCc3ccccc32)cc1.O=C(O)C(=O)O (stereo not drawn) | -0.128 |
| CC(C)c1[nH]nc2c1C(c1cccc(OC(=O)N3CCOCC3)c1)C(C#N)=C(N)O2 (stereo not drawn) | 10.2 |
| O=C(CC1CCCCC1)Nc1nc2ccccc2s1 | -3.29 |
| Cc1ccc(NC(=O)c2cc(S(=O)(=O)N3CCOCC3)ccc2F)c(C)c1 | 5.8 |
| COc1ccc(OCC(=O)Nc2ccc3c(c2)nc(CCNC(C)=O)n3C)cc1 | 12.4 |
| O=C(Cn1nnc(-c2ccc(F)cc2)n1)OCC(=O)c1ccccc1 | 9.68 |
| Cc1ccc(CCNS(=O)(=O)c2ccc3c(c2)NC(=O)C(C)C(=O)N3)cc1 (stereo not drawn) | 17.9 |
| O=C(c1ccccc1)c1ccc2c(c1)OCCOCCOCCO2 | 8.88 |
| CCN1CCN(CC(=O)Nc2ccc(C)c(Br)c2)CC1.Cl | -13.5 |
| CN1CCN(Cc2nc3ccccc3n2C)CC1 | 2.85 |
| COc1cc2c(cc1NC(=O)/C=C/c1cc(OC)c(OC)c(OC)c1)oc1ccccc12 | 4.79 |
| CN(Cc1ccccc1)S(=O)(=O)c1ccc(N2CCOCC2)nc1 | 14.1 |
| CCOc1ccc(-n2c(O)c(C=NCCCn3ccnc3)c(=O)[nH]c2=O)cc1 | 13.4 |
| Cc1ccc(NC(=O)[C@H](C)NC(=O)C2CCN(C(=O)[C@H](CC(C)C)NC(=O)OC(C)(C)C)CC2)cc1 | 2.26 |
| COC(=O)CN1C(=O)CC(C)(C)Sc2ccccc21 | 11.6 |
| CCOC(=O)C1=C(COC(=O)C2CC(=O)N(c3ccccc3F)C2)NC(=O)NC1C (stereo not drawn) | 4.7 |
| Cc1ccc(N2CC(C(=O)OCc3nnc(-c4ccccc4)o3)CC2=O)cc1 (stereo not drawn) | 32 |
| O=C(NC1CCCCC1)C(c1ccc2ncccc2c1)N(Cc1ccc(F)cc1)C(=O)c1ccc2c(c1)OCCO2 (stereo not drawn) | 8.72 |
| Cc1cc(C)nc(NC(=O)c2ccc([N+](=O)[O-])o2)n1 | 0.245 |
| O=C(COc1ccc(Br)cc1)N/N=C1/SCC(=O)N1Cc1ccccc1 | -4.03 |
